Assay results taken from the supplement of paper PMC9588766.
Where “and” joins values, the source holds several entries; their conditions need not be identical. Equal values may be shown once. Where a name gives a salt, the structure may show the parent alone. Whole data set: some 1,900 compounds, median “cell viability of compound + 1 nM pemigatinib relative to pemigatinib-only (DMSO) wells” near 0.95, cut for the lowest 2% near 0.22. Some of the results follow.

What follows are compounds tested on PDC-DUC18828 (assay: cell viability of compound + 1 nM pemigatinib relative to pemigatinib-only (DMSO) wells (fraction); PDC-DUC18828 is a patient-derived cholangiocarcinoma cell line; higher = less growth inhibition). Details: first compound 1 µM; pemigatinib concentration 1 nM; 72 h.
Protocol: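 Selleck Bioactive library screen in the patient-derived FGFR2 fusion-positive ICC cell line PDC-DUC18828 (500 cells/well). Each compound was tested at 1 uM with 1 nM pemigatinib, in triplicate, for 72 h. Viability was read by CellTiter-Glo and normalised to plate DMSO controls. Value is the paper's averaged normalised viability.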

| SMILES | cell viability |
| --- | --- |
| CC(C)CN(C[C@@H](O)[C@H](Cc1ccccc1)NC(=O)O[C@H]1CCOC1)S(=O)(=O)c1ccc(N)cc1 [Amprenavir] + CCN1C(=O)N(c2c(F)c(OC)cc(OC)c2F)Cc2cnc3[nH]c(CN4CCOCC4)cc3c21 [pemigatinib] | 0.988 |
| CCC1=C[C@@H]2CN(C1)Cc1c([nH]c3ccccc13)[C@@](C(=O)OC)(c1cc3c(cc1OC)N(C)[C@H]1[C@@](O)(C(=O)OC)[C@H](OC(C)=O)[C@]4(CC)C=CCN5CC[C@]31[C@@H]54)C2 [Vinorelbine Tartrate] + CCN1C(=O)N(c2c(F)c(OC)cc(OC)c2F)Cc2cnc3[nH]c(CN4CCOCC4)cc3c21 [pemigatinib] | 0.249 |
| CNC(=C[N+](=O)[O-])NCCSCc1csc(CN(C)C)n1 [Nizatidine] + CCN1C(=O)N(c2c(F)c(OC)cc(OC)c2F)Cc2cnc3[nH]c(CN4CCOCC4)cc3c21 [pemigatinib] | 0.937 |
| CS(=O)(=O)Nc1ccc([N+](=O)[O-])cc1Oc1ccccc1 [Nimesulide] + CCN1C(=O)N(c2c(F)c(OC)cc(OC)c2F)Cc2cnc3[nH]c(CN4CCOCC4)cc3c21 [pemigatinib] | 1.04 |
| C=CC(=O)Nc1cccc(Nc2nc(Nc3ccc(NC4CN(CCF)C4)cc3OC)ncc2C(F)(F)F)c1 + CCN1C(=O)N(c2c(F)c(OC)cc(OC)c2F)Cc2cnc3[nH]c(CN4CCOCC4)cc3c21 [pemigatinib] | 0.811 |
| c1ccc2c(Oc3nc(Nc4ccc(N5CCOCC5)cc4)c4ncn(C5CCCCC5)c4n3)cccc2c1 [Purmorphamine] + CCN1C(=O)N(c2c(F)c(OC)cc(OC)c2F)Cc2cnc3[nH]c(CN4CCOCC4)cc3c21 [pemigatinib] | 0.897 |
| C[C@]12C=CC(=O)C=C1CC[C@@H]1[C@@H]2C(=O)C[C@@]2(C)[C@H]1CC[C@]2(O)C(=O)CO [Prednisone] + CCN1C(=O)N(c2c(F)c(OC)cc(OC)c2F)Cc2cnc3[nH]c(CN4CCOCC4)cc3c21 [pemigatinib] | 1 |
| CCOC(=O)CCC(=O)O[C@H]1[C@H](O[C@@H]2[C@@H](C)[C@H](O[C@H]3C[C@@](C)(OC)[C@@H](O)[C@H](C)O3)[C@@H](C)C(=O)O[C@H](CC)[C@@](C)(O)[C@H](O)[C@@H](C)C(=O)[C@H](C)C[C@@]2(C)O)O[C@H](C)C[C@@H]1N(C)C [Erythromycin Ethylsuccinate] + CCN1C(=O)N(c2c(F)c(OC)cc(OC)c2F)Cc2cnc3[nH]c(CN4CCOCC4)cc3c21 [pemigatinib] | 0.985 |
| COc1cc(NC(=O)c2ccc(-c3ccc(Cl)cc3)o2)cc(OC)c1 + CCN1C(=O)N(c2c(F)c(OC)cc(OC)c2F)Cc2cnc3[nH]c(CN4CCOCC4)cc3c21 [pemigatinib] | 1.01 |
| C[C@@H]1CN(c2c(F)c(N)c3c(=O)c(C(=O)O)cn(C4CC4)c3c2F)C[C@H](C)N1 [Sparfloxacin] + CCN1C(=O)N(c2c(F)c(OC)cc(OC)c2F)Cc2cnc3[nH]c(CN4CCOCC4)cc3c21 [pemigatinib] | 1 |
| CCn1cc(C(=O)O)c(=O)c2cc(F)c(N3CCN(C)CC3)cc21 [Pefloxacin Mesylate] + CCN1C(=O)N(c2c(F)c(OC)cc(OC)c2F)Cc2cnc3[nH]c(CN4CCOCC4)cc3c21 [pemigatinib] | 0.964 |
| CCn1cc(C(=O)O)c(=O)c2cc(F)c(N3CCN(C)CC3)cc21 [Pefloxacin Mesylate Dihydrate] + CCN1C(=O)N(c2c(F)c(OC)cc(OC)c2F)Cc2cnc3[nH]c(CN4CCOCC4)cc3c21 [pemigatinib] | 0.997 |
| CCOC(=O)c1ccc(N2NC(=O)C(=Cc3ccc([N+](=O)[O-])o3)C2=O)cc1 + CCN1C(=O)N(c2c(F)c(OC)cc(OC)c2F)Cc2cnc3[nH]c(CN4CCOCC4)cc3c21 [pemigatinib] | 0.941 |
| CCNC(=O)c1noc(-c2cc(Cl)c(O)cc2O)c1-c1ccc(OC)cc1 + CCN1C(=O)N(c2c(F)c(OC)cc(OC)c2F)Cc2cnc3[nH]c(CN4CCOCC4)cc3c21 [pemigatinib] | 0.3 |
| CCN[C@H]1CN(CCCOC)S(=O)(=O)c2sc(S(N)(=O)=O)cc21 [Brinzolamide] + CCN1C(=O)N(c2c(F)c(OC)cc(OC)c2F)Cc2cnc3[nH]c(CN4CCOCC4)cc3c21 [pemigatinib] | 0.872 |
| CC(C)c1c(C(=O)Nc2ccccc2)c(-c2ccccc2)c(-c2ccc(F)cc2)n1CC[C@@H](O)C[C@@H](O)CC(=O)O [Atorvastatin Calcium] + CCN1C(=O)N(c2c(F)c(OC)cc(OC)c2F)Cc2cnc3[nH]c(CN4CCOCC4)cc3c21 [pemigatinib] | 1.05 |
| CC(C)(C)c1cnc(CSc2cnc(NC(=O)C3CCNCC3)s2)o1 + CCN1C(=O)N(c2c(F)c(OC)cc(OC)c2F)Cc2cnc3[nH]c(CN4CCOCC4)cc3c21 [pemigatinib] | 0.281 |
| COc1cc(Br)c(Nc2nc(-c3c(C)nc4ncccn34)cs2)c(Br)c1 + CCN1C(=O)N(c2c(F)c(OC)cc(OC)c2F)Cc2cnc3[nH]c(CN4CCOCC4)cc3c21 [pemigatinib] | 0.466 and 0.376 |
| COC(=O)Nc1nc2cc(C(=O)c3cccs3)ccc2[nH]1 [Nocodazole] + CCN1C(=O)N(c2c(F)c(OC)cc(OC)c2F)Cc2cnc3[nH]c(CN4CCOCC4)cc3c21 [pemigatinib] | 0.316 |
| O=C1NC(=O)C(c2cnc3ccccn23)=C1c1cn2c3c(cc(F)cc13)CN(C(=O)N1CCCCC1)CC2 + CCN1C(=O)N(c2c(F)c(OC)cc(OC)c2F)Cc2cnc3[nH]c(CN4CCOCC4)cc3c21 [pemigatinib] | 0.544 |
| O=C(NC[C@H](O)CN1CCc2ccccc2C1)c1cc(NC2COC2)ncn1 + CCN1C(=O)N(c2c(F)c(OC)cc(OC)c2F)Cc2cnc3[nH]c(CN4CCOCC4)cc3c21 [pemigatinib] | 0.878 |
| COc1cc2ncnc(Sc3nnc(C)s3)c2cc1OC + CCN1C(=O)N(c2c(F)c(OC)cc(OC)c2F)Cc2cnc3[nH]c(CN4CCOCC4)cc3c21 [pemigatinib] | 0.985 |
